{
  "source": "ChEMBL document CHEMBL4888484",
  "about": "“Replenishing the malaria drug discovery pipeline: Screening and hit evaluation of the MMV Hit Generation Library 1 (HGL1) against asexual blood stage Plasmodium falciparum ,using a nano luciferase reporter read-out” (2022)",
  "note": "In all, about 150,000 compounds went through this assay and about 540 (0.36%) showed an effect of 50% or more. The list shows a part of the results.",
  "data": [
    {"system": "Plasmodium falciparum", "assay": "Primary screen in NF54 nanoGlo assay, in single point, at 2uM, 72h; a lower Z score goes with more inhibition", "assay_type": "functional, Erythrocyte", "settings": "timepoint 72 hour", "units": {"% Inhibition": "%"}, "values": [
      {"smiles": "O=C(Cn1nc2c(=O)n(-c3ccc(Br)cc3)ccn2c1=O)Nc1ccccc1", "% Inhibition": -3, "Z score": 0.49},
      {"smiles": "CCN(CC)S(=O)(=O)c1ccc(N2CCOCC2)c(NC(=O)c2cc(S(=O)(=O)N3CCCCC3)ccc2Cl)c1", "% Inhibition": 4, "Z score": -0.53},
      {"smiles": "Cn1cc(C(=O)N(Cc2ccccc2)Cc2ccccc2)cn1", "% Inhibition": -5, "Z score": 0.68},
      {"smiles": "O=C(Nc1ccn2nccc2n1)[C@H]1CCCO1", "% Inhibition": -2, "Z score": 0.25},
      {"smiles": "Cc1cccc2[nH]cc(CCNC(=O)C(=O)Nc3ccn(CCC(N)=O)n3)c12", "% Inhibition": 5, "Z score": -0.59},
      {"smiles": "COc1cc(=O)n2c(c1C(=O)N1CCCC[C@@H]1C)CCCCC2", "% Inhibition": -4, "Z score": 0.46},
      {"smiles": "CCOc1cc2c(cc1CN(C)Cc1cnn(C)c1C)CCC2", "% Inhibition": -12, "Z score": 1.31},
      {"smiles": "Cc1cc([C@H](C)NCc2noc(C)n2)c(C)o1", "% Inhibition": -2, "Z score": 0.31},
      {"smiles": "C#CCN(C)CCCNCc1cccc(C#N)c1", "% Inhibition": 9, "Z score": -1.88},
      {"smiles": "Cc1noc([C@@H]2CCCCN2S(=O)(=O)c2ccc(-c3c(C)noc3C)s2)n1", "% Inhibition": -13, "Z score": 1.49},
      {"smiles": "O=c1c2cccc(F)c2ncn1C1CCS(=O)(=O)CC1", "% Inhibition": -13, "Z score": 1.83},
      {"smiles": "Cc1cccnc1CN1C[C@H](c2ccccc2)[C@H](C(=O)O)C1", "% Inhibition": -5, "Z score": 0.8},
      {"smiles": "CC(C)c1nc([C@H]2CCCN(C(=O)c3ccc4c(n3)CCCC4)C2)no1", "% Inhibition": -2, "Z score": 0.29},
      {"smiles": "Cc1nn(-c2nc3ccccc3s2)c2c1[C@H]1[C@@H](C2)C1(C)C", "% Inhibition": 2, "Z score": -0.4},
      {"smiles": "CN1C[C@H](c2ccc(Cl)cc2)C(C(=O)c2cccnc2)[C@]12C(=O)Nc1ccc(F)cc12", "note": "(stereo partly specified)", "% Inhibition": 4, "Z score": -0.58},
      {"smiles": "Fc1ccc(-n2cc(-c3csc(-c4cnccn4)n3)nn2)cc1", "% Inhibition": -16, "Z score": 2.21},
      {"smiles": "CS(=O)(=O)CC1(CNC(=O)c2ccc(Br)cn2)CC1", "% Inhibition": 0, "Z score": 0.02},
      {"smiles": "CC(C)=CCN1C(=O)[C@@H]2CC[C@H]1CN(C(=O)CCc1cnn(C)c1)C2", "% Inhibition": -8, "Z score": 1.46},
      {"smiles": "CCc1nsc(N2CCC[C@@H]3O[C@H](c4ccccc4)C[C@@H]32)n1", "% Inhibition": -10, "Z score": 1.34},
      {"smiles": "Cn1cccc1C(=O)C(=O)NCc1ccc(Cl)cc1", "% Inhibition": 8, "Z score": -0.74},
      {"smiles": "N#Cc1c2n(c(=O)n(Cc3ccccc3)c1=O)CCC2", "% Inhibition": 12, "Z score": -1.35},
      {"smiles": "Cc1cc(N2C[C@H](C)C(=O)NC2=O)c(C)cc1C(C)C", "% Inhibition": -1, "Z score": 0.18},
      {"smiles": "O=C(OCC(=O)N1CCCCC1)c1cc(C2CC2)nc2ccccc12", "% Inhibition": -7, "Z score": 0.72}
    ]}
  ]
}
